This note sets out measurements from the supplement of paper PMC12355420.

Structures can show the parent of a compound that is named as a salt. The list shows a part of the results. No stated cut-off is given here; in the data, active = 0.5 or less and inactive = the rest. Repeats are few or missing, and single values can be far off.

Holding throughout (conditions): 50 µM; 24 h
Test [1] concerns HeLa VPS33A reporter cells. Briefly: relative cell viability (CellMask signal) vs DMSO (fraction of DMSO); higher = less cytotoxic.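 Further: primary screen of an FDA-approved drug library in HeLa reporter cells in 96-well format, CellMask signal normalized to DMSO-treated wells set as 1, under 0.5 deemed highly cytotoxic.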
Test [2] deals with HeLa VPS33A R498W KI + HA-SDC1-FLAG. Briefly: relative GAG core protein HA-SDC1 amount per cell number vs DMSO (fraction of DMSO); higher = more SDC1 (GAG core protein).
Test [3] deals with HeLa VPS33A KO + NLuc-VPS33A R498W. Put plainly: relative mutant VPS33A R498W amount (NanoLuc luminescence) vs DMSO (fraction of DMSO); HeLa model of a glycosaminoglycan (GAG) storage disease; KI is knock-in and KO knock-out; SDC1 is syndecan 1; higher = higher mutant VPS33A level.
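Wherever relative GAG core protein HA-SDC1 amount per cell number vs DMSO is given: HA-SDC1 level read out by In-Cell Western staining with an anti-HA antibody against the N-terminal tag, screening FDA-approved library drugs.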
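Wherever relative mutant VPS33A R498W amount (NanoLuc luminescence) vs DMSO is given: screen of an FDA-approved drug library, NanoLuc luminescence read after lysing the treated cells, taken as a measure of mutant VPS33A protein stability.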

As to `CCCCS(=O)(=O)N[C@@H](Cc1ccc(OCCCCC2CCNCC2)cc1)C(=O)O` [Tirofiban hydrochloride monohydrate], the relative cell viability in test [1] stood at 1.23. In addition, in test [2], the “relative GAG core protein HA-SDC1 amount per cell number” value is inactive: 1.26. Also, the “relative mutant VPS33A R498W amount” value in test [3] came out at 1.47.
For `CC(=O)Oc1ccccc1C(=O)Nc1ncc([N+](=O)[O-])s1` [Nitazoxanide], in that order: 1.12, inactive: 1.06 and 0.973.
For `CCCC(CCC)C(=O)O` [Valproic acid sodium salt (Sodium valproate)], in that order: 1.06, inactive: 1.27 and 1.08.
As to `CCCN1CCCC[C@H]1C(=O)Nc1c(C)cccc1C` [Ropivacaine HCl], in test [1], the relative cell viability amounted to 1.08. The “relative GAG core protein HA-SDC1 amount per cell number” value in test [2] is inactive: 0.811. Also, the “relative mutant VPS33A R498W amount” value in test [3] was 1.19.
For `CN[C@@H]1[C@@H](O[C@H]2O[C@H](CO)[C@@H](N)[C@H](O)[C@H]2O)OC2C[C@@H](N)[C@@H](O[C@H]3[C@H](O)[C@@H](O)[C@H](N)C[C@@H]3N)OC2[C@@H]1O` (stereo partly drawn) [Apramycin Sulfate], in that order: 1.05, inactive: 1.33 and 0.809.
`CC(=O)Oc1cccc2c1C(=O)c1c(OC(C)=O)cc(C(=O)O)cc1C2=O` [Diacerein] gave a relative cell viability in test [1] of 0.931. Further, the “relative GAG core protein HA-SDC1 amount per cell number” value in test [2] was inactive: 0.712. For the same compound, the “relative mutant VPS33A R498W amount” value in test [3] was 1.18.
